# Data published in PubChem BioAssay AID652104 (National Center for Advancing Translational Sciences (NCATS), 2013).
# The campaign covered roughly 410,000 compounds. About 7,200 (1.8%) were called active. The inconclusive results got no clear call from the source; some entries with a clear call stand among them for comparison. The call rests on the fitted dose curve; in most records, active means well fitted activation curve with a large enough effect; inconclusive means small, poorly fitted or top-dose-only effect, or another doubt; inactive means no such curve, though single readings can be large or run the other way. No potency is given beside an inconclusive call; the fits are too rough.
# Assay: qHTS of TDP-43 Inhibitors; further: nearly all actives have a fitted effect of over 50% in size; on growth rescue (activation): % of control where 0% means no effect
# Conditions: TDP-43 expressing yeast growth rescue, BacTiter-Glo, 24 h; growth rescue (activation): at 46.1 µM (top of the series) unless noted
# How it was run: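 Growth rescue of TDP-43-toxic yeast measured as ATP luminescence (BacTiter-Glo). Cells grown to mid-log in raffinose, induced in galactose at OD600=0.02, exposed to compound 24 hr at 30 deg C.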
# Potency means the concentration at half of the fitted maximal effect; tags describe the fitted curve by direction and shape.
Structure (SMILES),Potency,growth rescue (activation)
COCc1cc(=O)n2[nH]c(C)cc2n1,inactive,–
COc1ccc(Cl)cc1CC1(C)C(=O)Nc2c(Cl)cccc21 (centres undefined),active: 28.2 µM,–
COc1ccc(-c2cc(OC(=O)c3cccc(Cl)c3)c3c(C)oc(C)c3c(=O)c2)cc1OC,inactive,–
Cc1ccc(C)c(Cn2c3ccccc3c3cnn(CC(=O)NC4CCCCCC4)c(=O)c32)c1,inactive,–
Cc1ccc(-c2c3c(=O)n(C)c(=O)n(C)c3c3c(-c4cccc(C)c4)nc4ccccc4n23)cc1,"inconclusive [activator, partial curve]",–
Cc1cc(C)c(S(=O)(=O)NCC2CCC(C(=O)NCCc3ccccc3)CC2)c(C)c1 (centres undefined),inactive,–
COC(=O)c1ccccc1NC(=O)c1ccc2c(c1)CCN2S(=O)(=O)c1ccc(Cl)cc1,inactive,–
O=c1n(Cc2ccccc2)nc2n1-c1cc(Cl)ccc1OC2,inactive,–
Fc1cccc(Cc2c(-c3ccccc3)nc3ccc(Cl)cn23)c1,"inconclusive [activator, single point]",–
O=C(NC1CC1(c1ccccc1)c1ccccc1)c1ccccc1 (centres undefined),"inconclusive [activator, partial curve]",–
Cc1cccc(N2CCN(C3=NC(=O)C(Cc4ccccc4)S3)CC2)c1 (centres undefined),"inconclusive [activator, partial curve]",–
Cc1cc(N2CCN(c3cccc(C)c3C)CC2)nc(-c2ccccc2)n1,"inconclusive [activator, single point]",–
COc1ccc(C(=O)N2CC(c3ccccc3)CC2=O)cc1 (centres undefined),"inconclusive [activator, partial curve]",–
O=C(CN(c1cccc([N+](=O)[O-])c1)S(=O)(=O)c1ccccc1)N(Cc1ccccc1)Cc1ccccc1,inactive,–
Cc1nc2sccn2c(=O)c1S(=O)(=O)N1CCN(c2cccc(C(F)(F)F)c2)CC1,"inconclusive [activator, single point]",–
CCCCC1=CC2=C(c3ccco3)C(=O)C(C)(OC(=O)c3ccc(OC)cc3)C(=O)C2=CN1CCCN(CC)CC (centres undefined),"inconclusive [activator, single point]",–
N/C(=N\OC(=O)c1ccc(Cl)c([N+](=O)[O-])c1)c1ccccn1,active: 15.8 µM,–
COCC(=O)Nc1ccc2c(c1)[C@@H]1C[C@H](CC(=O)OC)O[C@@H](CO)[C@@H]1O2,"inconclusive [activator, full curve, poor fit]",–
O=C(NC(=S)N1CCCCC1)C12CC3CC(CC(C3)C1)C2,"inconclusive [activator, single point]",–
CC(C)(C)n1ncc2c(=O)n(Cc3c(F)cccc3Cl)cnc21,"inconclusive [activator, single point]",–
CSc1ccc(-c2nnn(Cc3ccccn3)n2)cc1,"inconclusive [activator, partial curve]",–
Cc1ccc(N2C(=O)[C@@H]3CSC(c4ccc(Cl)cc4)N3C2=O)cc1 (some centres undefined),active: 25.1 µM,–
COc1cc(C2CC(=O)Nc3ccc4ccccc4c32)ccc1OC(=O)C(C)C (centres undefined),inactive,–

Structure (SMILES),Potency,growth rescue (activation)
O=C(Cn1nc(C(=O)O)c2ccccc2c1=O)c1cc(F)ccc1F,"inconclusive [activator, single point]",–
NS(=O)(=O)c1ccc(CCNC(=O)c2cc(-c3ccccn3)nc3ccc(Br)cc23)cc1,–,inactive: 13.6% [at 9.22 µM]
O=C1c2ccccc2/C(=C\c2ccc(Br)s2)N1c1ccccc1,"inconclusive [activator, partial curve]",–
CC(C)(C)NC(=O)CCCSc1nc2ccccc2s1,"inconclusive [activator, partial curve, poor fit]",–
CCOc1ccc(S(=O)(=O)NCCC(=O)N(C)Cc2ccc(C)o2)cc1,"inconclusive [activator, partial curve]",–
Cc1ccc(-c2csc3ncnc(Sc4nnc(CN5CCCCCC5=O)o4)c23)cc1,"inconclusive [activator, single point]",–
Cc1noc(-c2ccccc2OCC(=O)Nc2ccccc2[N+](=O)[O-])n1,active: 20 µM,–
COc1ccc(CNC(=O)c2sc3nc[nH]c(=O)c3c2C)cc1,inactive,–
Cc1nc([N+](=O)[O-])c(Br)n1Cc1ccccc1,inactive,–
Cc1cc(N/N=C/c2ccccc2Br)nc2ccccc12,"inconclusive [activator, partial curve]",–
CC1Cc2ccccc2N1C(=O)CCn1c(=O)oc2ccccc21 (centres undefined),"inconclusive [activator, partial curve, poor fit]",–
CNC(=S)N=Nc1c(O)[nH]c2ccc(C(C)C)cc12,"inconclusive [activator, full curve, poor fit]",–
COC(=O)c1ccc(NC(=O)CCn2cnnn2)c(C)c1,inactive,–
Cc1ccc(COn2nnc3ccc(S(=O)(=O)N4CCOCC4)cc32)cc1,"inconclusive [activator, partial curve]",–
COc1ccc(-n2nc(C(=O)NCC(=O)N3CC(C)CC(C)C3)c3ccccc3c2=O)cc1 (centres undefined),active: 14.1 µM,–
O=C1CC(N(O)C2CC(=O)N(Cc3ccccc3)C2=O)C(=O)N1Cc1ccccc1 (centres undefined),"inconclusive [activator, single point]",–
CCN1CCSc2ccc(C(=O)NCc3cccc(Br)c3)cc21,"inconclusive [activator, single point]",–
CCCCOc1ccccc1C(=O)N(Cc1sccc1C)C1CCS(=O)(=O)C1 (centres undefined),inactive,–
CCCCCn1c(=O)c(C(=O)OCC)c(O)c2ccccc21,inactive,–
COc1ccc(CNC(=O)Nc2nc(C(N)c3ccccc3)cs2)cc1 (centres undefined),"inconclusive [activator, full curve]",–
COc1ccc(-c2cn3c(C)c(C(=O)Nc4ccncc4)sc3n2)cc1,"inconclusive [activator, full curve, poor fit]",–
Cc1cccc(C(=O)Nc2ccc(N3CC=C(c4ccccc4C)CC3)c(C(=O)O)c2)c1,–,inactive: 0% [at 9.22 µM]
Cc1ccc(CN2C(=O)c3ccccc3Sc3ccc(C(=O)N4CCOCC4)cc32)cc1,inactive,–

Structure (SMILES),Potency,growth rescue (activation)
Cc1ccccc1N1C(=O)C(Cl)=C(N2CCCCCC2)C1=O,"inconclusive [activator, single point]",–
O=c1[nH]c(CN2CCN(c3ccccc3)CC2)nc2scc(-c3ccccc3)c12,"inconclusive [activator, full curve, poor fit]",–
CCOC(=O)C(C)Sc1nnc2c3ccccc3n(C)c2n1 (centres undefined),"inconclusive [activator, partial curve]",–
Cc1cc(C2C(C#N)=C(N)SC(N)=C2C#N)c(C)s1,"inconclusive [activator, full curve, poor fit]",–
O=C(Nc1nc2ccc(F)cc2s1)c1ccccn1,inactive,–
Cc1ccc(OCC(=O)NCC(=O)OCc2cc(=O)n3nc(C(C)C)sc3n2)cc1,inactive,–
O=C(O)/C=C/C(=O)Nc1ccc(Oc2ccccc2)cc1,"inconclusive [activator, single point]",–
COc1ccccc1NC(=O)CSc1nc(SC)ns1,"inconclusive [activator, single point]",–
COc1ccc(C(=O)NC(c2ccccc2Cl)c2cc(Cl)c3cccnc3c2O)cc1 (centres undefined),"inconclusive [activator, single point]",–
O=C(NCCc1ccccc1)c1ccc(-c2ccc(F)c(F)c2)c2ccoc12,inactive,–
O=C(CSc1ncccc1C(=O)O)Nc1ccc2c(c1)OCCO2,inactive,–
O=C(Nc1cccc(F)c1)C1CC(=O)N(c2ccc(Cl)cc2)C1 (centres undefined),"inconclusive [activator, single point]",–
NC(CSC(c1ccccc1)(c1ccccc1)c1ccccc1)C(=O)O (centres undefined),"inconclusive [activator, partial curve]",–
Cc1ccc(NC(=O)C(=O)N2CCCC2)cc1Cl,"inconclusive [activator, full curve, poor fit]",–
COc1ccccc1N1CCN(C(=O)c2cccc(Oc3ccccc3)c2)CC1,active: 35.5 µM,–
Oc1ccc(-c2csc(Nc3ccccn3)n2)c(O)c1,active: 20 µM,–
COC(=O)C1C(c2ccccc2)C(C(=O)N2CCOCC2)C1c1ccccc1 (centres undefined),inactive,–
CCOC(=O)c1cccc(NC(=O)CSc2ncc3c(n2)-c2ccc(Cl)cc2N(Cc2ccccc2)S3(=O)=O)c1,inactive,–
COc1ccccc1CNC(=O)CCS(=O)(=O)c1ccc2c(c1)oc(=O)n2C,inactive,–
COc1ccc(S(=O)(=O)NCCSC(C)(C)C)c(Cl)c1Cl,inactive,–
CSc1ccccc1NC(=S)Nc1cccc(C(F)(F)F)c1,"inconclusive [activator, partial curve, poor fit]",–
Nc1nonc1-c1noc(COc2ccccc2Cl)n1,"inconclusive [activator, partial curve]",–
Cc1ccc(NC(=O)CSCC(=O)N(C)Cc2c(F)cccc2Cl)cc1,"inconclusive [activator, full curve]",–

Structure (SMILES),Potency,growth rescue (activation)
CCCCCCCC[n+]1cccc(C(=O)N(CC)CC)c1,inactive,–
O=c1c2ccccc2sc2nc(CCl)nn12,"inconclusive [activator, partial curve]",–
Cc1cccc(NC(=S)NC(C)CCc2ccccc2)c1 (centres undefined),"inconclusive [activator, single point]",–
CC(=O)NC(c1cccc(F)c1)c1nc(-c2ccc3ccccc3c2)cs1 (centres undefined),"inconclusive [activator, partial curve, poor fit]",–
COC(=O)C1=C(C(=O)OC)C(c2cc(Cl)ccc2O)c2sc(=O)[nH]c2S1 (centres undefined),inactive,–
O=C(CCS(=O)(=O)c1ccc(Br)s1)Nc1cc(C(F)(F)F)cc(C(F)(F)F)c1,inactive,–
CC1CC(C)(C)N(C(=O)CSc2ccc(-c3ccc(F)cc3)nn2)c2ccccc21 (centres undefined),"inconclusive [activator, single point]",–
Clc1ccc(CSc2nnc(CNc3cccc(Cl)c3)o2)cc1,inactive,–
NC1=NN=C(N2N=C(c3ccco3)CC2(O)C(F)(F)F)n2ncnc2C1 (centres undefined),inactive,–
CN(C)S(=O)(=O)c1cccc(NC(=O)CSc2cccc3cccnc23)c1,"inconclusive [activator, single point]",–
COC(=O)[C@]1(C)N[C@H](c2ccc(-c3ccc(Cl)c(Cl)c3)c(OC)c2)[C@@H]2C(=O)N(C)C(=O)[C@@H]21,"inconclusive [activator, single point]",–
COc1cc2nc(C)sc2cc1SC,active: 20 µM,–
O=C(COC(=O)c1cccc(OC(F)F)c1)NC(=O)NC1CCCCC1,"inconclusive [activator, single point]",–
Cc1cc(OCc2cc(C(=O)N(C)C(C)c3ccccn3)no2)cc(C)c1Cl (centres undefined),active: 22.4 µM,–
CCC(=O)Nc1ccc(N2CCCCC2)c(C(=O)Nc2ccc(OC)cc2)c1,"inconclusive [activator, single point]",–
Cc1ccccc1Nc1c(-c2ccc(N3CCOCC3)cc2)nc2cccc(C)n12,"inconclusive [activator, partial curve]",–
Cc1cccc(-c2noc(CCCC(=O)NCC3CCCO3)n2)c1 (centres undefined),"inconclusive [activator, partial curve, poor fit]",–
Cc1ccc(OCCSc2nnc(-c3cccs3)n2C)cc1,active: 12.6 µM,–
CCOC(=O)c1cn2nc(SCc3ccccc3)nc2nc1C,active: 15.8 µM,–
CC(=O)Nc1nc(-c2cccs2)cs1,inactive,–
